In PMC4336329 (PLoS ONE, 2015):
About 2,200 (0.71%) of roughly 310,000 compounds showed an effect of 50% or more. The effect is printed as a negative number. The list shows a part of the results.

target: human ether-à-go-go-related gene (hERG) potassium channel (human, UniProt Q12809); assay: primary screen, population patch clamp on CHO cells stably expressing hERG
Sequence (Q12809 whole entry, looked up): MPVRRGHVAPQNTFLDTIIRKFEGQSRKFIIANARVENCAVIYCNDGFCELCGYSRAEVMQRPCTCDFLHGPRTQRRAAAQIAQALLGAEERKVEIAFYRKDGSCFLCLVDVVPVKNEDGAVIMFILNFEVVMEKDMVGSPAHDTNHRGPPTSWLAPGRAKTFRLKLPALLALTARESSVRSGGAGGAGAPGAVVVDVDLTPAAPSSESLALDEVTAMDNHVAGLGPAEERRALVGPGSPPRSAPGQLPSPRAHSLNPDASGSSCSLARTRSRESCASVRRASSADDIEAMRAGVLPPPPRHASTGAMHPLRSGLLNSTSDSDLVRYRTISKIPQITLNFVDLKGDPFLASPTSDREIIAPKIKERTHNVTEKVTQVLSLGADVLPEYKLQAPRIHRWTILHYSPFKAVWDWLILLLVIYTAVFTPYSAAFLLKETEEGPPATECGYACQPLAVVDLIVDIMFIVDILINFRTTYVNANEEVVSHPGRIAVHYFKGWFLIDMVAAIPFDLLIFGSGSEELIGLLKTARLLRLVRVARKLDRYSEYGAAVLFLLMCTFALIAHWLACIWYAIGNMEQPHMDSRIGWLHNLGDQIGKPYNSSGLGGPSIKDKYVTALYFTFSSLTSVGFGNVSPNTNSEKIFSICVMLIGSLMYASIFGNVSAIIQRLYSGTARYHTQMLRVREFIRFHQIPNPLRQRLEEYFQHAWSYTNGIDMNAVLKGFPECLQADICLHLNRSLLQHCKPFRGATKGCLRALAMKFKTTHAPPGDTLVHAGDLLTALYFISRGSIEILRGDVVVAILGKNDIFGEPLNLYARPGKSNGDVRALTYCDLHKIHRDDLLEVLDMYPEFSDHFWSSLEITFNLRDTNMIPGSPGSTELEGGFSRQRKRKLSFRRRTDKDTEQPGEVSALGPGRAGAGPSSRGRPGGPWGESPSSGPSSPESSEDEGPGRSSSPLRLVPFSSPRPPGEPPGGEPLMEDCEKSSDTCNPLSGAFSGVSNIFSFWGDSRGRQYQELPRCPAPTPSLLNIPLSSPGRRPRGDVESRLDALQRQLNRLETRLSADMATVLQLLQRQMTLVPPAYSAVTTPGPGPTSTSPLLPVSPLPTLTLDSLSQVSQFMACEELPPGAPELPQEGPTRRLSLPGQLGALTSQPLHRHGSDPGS

Going from `CC1CCCCC1NC(=O)CN1c2cccc3cccc(c23)S1(=O)=O` (centres unmarked) to `Cc1ccc(Cn2c(=N)c(C(=O)NC3CCCC3)cc3c(=O)n4ccccc4nc32)cc1`, the “hERG current change (%, negative = inhibition) at 1uM” value falls from 6.25% to -73.4%.

Compared with `CCc1noc(C)c1C(=O)OCC(=O)NC(C)c1ccccc1` (centres unmarked), `COCCN1C(=O)N[C@@H](c2ccccc2)C(C(=O)OC)=C1C` is higher in “hERG current change (%, negative = inhibition) at 1uM” value: -2.02% for the first, 13.2% for the second.

First: CC1CCC(C(C)C)C(OC(=O)Cn2c(COc3ccccc3)[n+](C)c3ccccc32)C1.[Cl-] (centres unmarked)
Second: CC(C(=O)c1ccccc1)N1C(=O)c2ccccc2C1=O (centres unmarked)
The “hERG current change (%, negative = inhibition) at 1uM” value of the first is lower: -54% for the first, 11.9% for the second.

Compared with `O=C(CNCc1ccc(Cl)cc1)Nc1ccc2c(c1)OCCO2.O=C(O)C(=O)O`, `O=C(CN(c1ccc2c(c1)OCCO2)S(=O)(=O)c1ccccc1)N1CCN(Cc2ccccc2)CC1` is higher in “hERG current change (%, negative = inhibition) at 1uM” value: 10.2% for the first, 12.4% for the second.

First: Cc1cc(Br)ccc1OCCCCNCCO.O=C(O)C(=O)O
Second: CN(CCOc1ccc(Cl)c(Cl)c1)Cc1ccccc1.O=C(O)C(=O)O
The “hERG current change (%, negative = inhibition) at 1uM” value of the first is lower: 3.97% for the first, 19.7% for the second.

First: O=C(Nc1cccc(S(=O)(=O)N2CCOCC2)c1)[C@@H]1CCCN1S(=O)(=O)c1ccc(Cl)cc1
Second: CC(=O)c1ccc(NC(=O)c2ccc(C)c(S(=O)(=O)N3CCOCC3)c2)cc1
The “hERG current change (%, negative = inhibition) at 1uM” value of the first is lower: 6.17% for the first, 12.1% for the second.

Going from `COc1ccc(N2CCN(C3CCCN(S(=O)(=O)c4ccc(C)cc4C)C3)CC2)cc1` (centres unmarked) to `Cc1cc(S(=O)(=O)Nc2ccc(N3CCOCC3)cc2)ccc1Br`, the “hERG current change (%, negative = inhibition) at 1uM” value falls from 11.2% to 10.4%.

Compared with `CCOC(=O)N1CCN(C(=O)c2ccc3c(c2)N(Cc2ccc(F)cc2)CCS3)CC1`, `O=C(Nc1ccc(C(=O)N2CCCC2)cc1)c1ccc(F)cc1Cl` is higher in “hERG current change (%, negative = inhibition) at 1uM” value: 1.33% for the first, 9.39% for the second.

Going from `CCCc1cc(=O)n2[nH]c(C)cc2n1` to `Cc1csc(OCc2ccc(C#N)cc2)n1`, the “hERG current change (%, negative = inhibition) at 1uM” value rises from -9.61% to 0.531%.

Going from `CSc1ncccc1C(=O)N1CCCC(Nc2ccc(C)c(C)c2)C1` (centres unmarked) to `CSc1cccc(-n2ccc(=O)c(C)c2C)c1`, the “hERG current change (%, negative = inhibition) at 1uM” value falls from 12.1% to 10.4%.

Going from `O=Nc1c(-c2ccccc2)[nH]n(-c2ccccc2)c1=O` to `Cc1[nH]n(-c2ccccc2)c(=S)c1C=Nc1cccc([N+](=O)[O-])c1`, the “hERG current change (%, negative = inhibition) at 1uM” value falls from 10.3% to 0.845%.

Compared with `CC1(C)CC(=O)C=C(c2ccc(Oc3ccccc3)cc2)C1`, `COc1ccc(-c2cn(-c3ccccc3)c(=S)[nH]2)cc1OC` is higher in “hERG current change (%, negative = inhibition) at 1uM” value: 11.2% for the first, 12.8% for the second.

Compared with `CCS(=O)(=O)Nc1c(C(=O)OC)[nH]c2ccccc12`, `COc1ccccc1S(=O)(=O)c1c(C)cc(C)[nH]c1=O` is higher in “hERG current change (%, negative = inhibition) at 1uM” value: 6.05% for the first, 13.6% for the second.

Going from `Cc1nnc2ccc(-c3ccc(NS(C)(=O)=O)cc3)nn12` to `CCOC(=O)c1nnc(-c2ccc(C)cc2)nc1Sc1ccccc1Cl`, the “hERG current change (%, negative = inhibition) at 1uM” value rises from 0.745% to 11%.

Compared with `CN(C)CCCN1CC(C(=O)O)CC1=O` (centres unmarked), `CCn1nc(C)c(CNC(=O)CC2C(=O)NCCN2CC(C)C)c1C` (centres unmarked) is lower in “hERG current change (%, negative = inhibition) at 1uM” value: 12.5% for the first, 11.8% for the second.

First: Cc1ccc(N2C(=O)NC(NC(=O)C(C)(C)C)(C(F)(F)F)C2=O)cc1C (centres unmarked)
Second: CC(=O)c1sc(NC(=O)c2ccccc2C)nc1C
The “hERG current change (%, negative = inhibition) at 1uM” value of the first is lower: 8.36% for the first, 11.8% for the second.

Going from `COC(=O)C1=CN(Cc2ccccc2)C=C(C(=O)OC)C1c1ccc(OC)c(OC)c1` to `COc1cc(/C=N/N=C(/C(=O)c2ccccc2)c2ccccc2)cc(OC)c1O`, the “hERG current change (%, negative = inhibition) at 1uM” value falls from 13.4% to 12.1%.

First: CC1CCCN(CC(=O)Nc2cc(S(=O)(=O)N3CCOCC3)ccc2N2CCCC2)C1 (centres unmarked)
Second: Cc1ccc(S(=O)(=O)N2CCOCC2)cc1C(=O)NC1CCCC(C)C1C (centres unmarked)
The “hERG current change (%, negative = inhibition) at 1uM” value of the first is higher: 5.6% for the first, -6.75% for the second.

Going from `Cn1c(=O)n(C)c2cc(N3CCCCC3)c(NC(=O)c3cccc(Cl)c3)cc21` to `COc1ccccc1NC(=O)C1CCC(CNc2c(N3CCCCC3)c(=O)c2=O)CC1` (centres unmarked), the “hERG current change (%, negative = inhibition) at 1uM” value rises from 3.79% to 16.7%.

Compared with `O=c1[nH]c(-c2ccccc2)cs1`, `O=C1CCCCC1C(=O)c1ccccc1` (centres unmarked) is higher in “hERG current change (%, negative = inhibition) at 1uM” value: -0.516% for the first, 14.9% for the second.

Compared with `CCN(CC)C(=O)/C(=C/c1cccc([N+](=O)[O-])c1)NC(=O)c1ccco1`, `O=C(N/C(=C/c1ccccc1)C(=O)N1CCCCC1)c1ccc(Br)o1` is higher in “hERG current change (%, negative = inhibition) at 1uM” value: -1.66% for the first, -0.572% for the second.

Going from `O=S(=O)(NCCCN1CCOCC1)c1ccc2ccccc2c1` to `O=C(NCCCN1CCOCC1)c1ccc(CS(=O)(=O)Cc2ccc(Cl)cc2)o1`, the “hERG current change (%, negative = inhibition) at 1uM” value falls from 12.1% to 6.42%.

Compared with `COc1ccc2c(c1)c(=O)oc1c(C)c(OCc3cc(C(=O)O)oc3C)ccc12`, `COc1cccc(-n2c(SCC(=O)Nc3cc(C)on3)nc3ccccc3c2=O)c1` is lower in “hERG current change (%, negative = inhibition) at 1uM” value: 13.9% for the first, -8.56% for the second.

Compared with `CCOc1ccc(-n2c(SCC(=O)NC)nnc2-c2ccco2)cc1`, `CCOc1cc(C(=O)NCc2ccco2)cc(OCC)c1OCC` is lower in “hERG current change (%, negative = inhibition) at 1uM” value: -2.29% for the first, -3.65% for the second.

Compared with `Cl.Oc1ccc(COCc2ccccc2)c2cccnc12`, `O=C(O)c1ccc(-c2nnn(Cc3ccccc3F)n2)cc1` is higher in “hERG current change (%, negative = inhibition) at 1uM” value: 0.951% for the first, 33.7% for the second.

Going from `COC(=O)c1cc(S(=O)(=O)NCC2CCN(Cc3cc(C)ccc3C)CC2)c[nH]1` to `Cc1cc(C)c(S(=O)(=O)Nc2ccc(Cl)cn2)c(C)c1`, the “hERG current change (%, negative = inhibition) at 1uM” value rises from 2.48% to 5.16%.

First: CCN(Cc1nc2ccccc2c(=O)[nH]1)C(=O)CN1C(=O)NC2(CCCCC2C)C1=O (centres unmarked)
Second: Cc1ccc(C)c2[nH]c(=O)c(CN(CC3CCCO3)C(=O)NC3CCCCC3)cc12 (centres unmarked)
The “hERG current change (%, negative = inhibition) at 1uM” value of the first is lower: 5.72% for the first, 11.2% for the second.

Going from `CS(=O)(=O)NNC(=O)Cn1nnc(-c2cc(C(F)(F)F)cc(C(F)(F)F)c2)n1` to `C/C(=N\NC(=O)c1ccc(-n2cnnn2)cc1)c1ccc(Cl)cc1`, the “hERG current change (%, negative = inhibition) at 1uM” value falls from 13.9% to 3.65%.

Compared with `CN(C)C(=O)Oc1ccc2c(c1)O/C(=C\c1cccc(Cl)c1)C2=O`, `COc1ccc(C(=O)COC(=O)CNC(=O)c2ccc(Cl)cc2Cl)c(OC)c1` is higher in “hERG current change (%, negative = inhibition) at 1uM” value: 10.6% for the first, 14.3% for the second.

First: CCCOC(=S)N/C(=N\S(=O)(=O)c1ccccc1)c1ccccc1
Second: CC(=O)Nc1ccc(/C(C)=N/NC(=O)c2ccccc2Cl)cc1
The “hERG current change (%, negative = inhibition) at 1uM” value of the first is lower: 1.68% for the first, 6.93% for the second.

Compared with `CC12CCC(=O)N1C(C(=O)Nc1ccc(Cl)c(S(=O)(=O)N3CCCCC3)c1)CS2` (centres unmarked), `S=C(Nc1ccc(Br)cc1)N1CCCC1` is higher in “hERG current change (%, negative = inhibition) at 1uM” value: -3.44% for the first, 7.68% for the second.

Compared with `Cn1c(=O)n(CCc2ccccc2)c(=O)c2c1nc1n2CCN1Cc1ccco1`, `COc1ccc(-c2c(C#N)c(N)nc3c2c(=O)n(C)c(=O)n3C)cc1` is higher in “hERG current change (%, negative = inhibition) at 1uM” value: -28.7% for the first, 6.42% for the second.

First: CC(OC(=O)CCCOc1ccccc1)C(=O)NC(N)=O (centres unmarked)
Second: CC(C)CC(=O)Nc1cccc(C(=O)Nc2ccccc2C(=O)O)c1
The “hERG current change (%, negative = inhibition) at 1uM” value of the first is higher: 11.7% for the first, -1.97% for the second.

First: CCOc1ccc(C(C)(C)C)cc1S(=O)(=O)Nc1ccncc1
Second: O=C(Nc1ccc(S(=O)(=O)Nc2ncccn2)cc1)C1COc2ccccc2O1 (centres unmarked)
The “hERG current change (%, negative = inhibition) at 1uM” value of the first is higher: 15.4% for the first, 7.4% for the second.

Going from `CC(C)C(C(=O)NCc1ccco1)N(Cc1ccco1)C(=O)CNS(=O)(=O)c1ccc(F)cc1` (centres unmarked) to `Cc1ccc(NC(=O)CN(C)C(=O)c2ccc(S(=O)(=O)N(C)c3ccccc3)cc2)cc1`, the “hERG current change (%, negative = inhibition) at 1uM” value falls from 15.3% to 11.1%.

Compared with `CCCNC(=O)c1nnsc1Sc1ccc(Cl)cc1`, `CCCCN(C)CCNC(=O)CCn1nc(-c2ccc(Cl)cc2)ccc1=O` is lower in “hERG current change (%, negative = inhibition) at 1uM” value: 6.05% for the first, -11.9% for the second.

First: Fc1ccc(NC(=S)N/N=C/c2ccc(F)c(F)c2)cc1
Second: CCC(C)c1ccc(NC(=S)NC(C)C2CCCO2)cc1 (centres unmarked)
The “hERG current change (%, negative = inhibition) at 1uM” value of the first is higher: 9.19% for the first, 0.4% for the second.

Compared with `COc1cccc2sc(Nc3nc(-c4ccccn4)cs3)nc12`, `Cc1c(C(=O)Nc2ccccn2)oc2c(Cl)cccc12` is lower in “hERG current change (%, negative = inhibition) at 1uM” value: 16% for the first, 11.4% for the second.

Compared with `CCCCC1OC23CCCCC2C(C#N)(C#N)C1(C#N)C(=N)O3` (centres unmarked), `Nc1c(C(=O)OCC2CCCO2)c2nc3ccccc3nc2n1C1CCCC1` (centres unmarked) is lower in “hERG current change (%, negative = inhibition) at 1uM” value: 6.89% for the first, 5.99% for the second.

Compared with `Brc1cccc(-c2cnco2)c1`, `CC(=O)c1cccc(NC(=O)C2=CC(c3ccc4c(c3)OCO4)=NS(=O)(=O)N2C)c1` is higher in “hERG current change (%, negative = inhibition) at 1uM” value: 5.28% for the first, 14.9% for the second.

First: O=C(NCC(c1cccnc1)N1CCN(c2ccccc2F)CC1)C1CCCCC1 (centres unmarked)
Second: O=C(COc1ccc(Br)cc1)Nc1ccc(N2CCOCC2)cc1N1CCOCC1
The “hERG current change (%, negative = inhibition) at 1uM” value of the first is lower: -3.18% for the first, 1.83% for the second.

Compared with `COc1ccc(N2C(N)=NC(N)=NC2(C)C)cc1.Cl`, `COc1ccc(C2CC(=O)c3sc(N)nc3C2)cc1` (centres unmarked) is higher in “hERG current change (%, negative = inhibition) at 1uM” value: 9.23% for the first, 14.8% for the second.

Compared with `CCCNC(=O)C(Cc1ccccc1C)NC(=O)c1ccc(C#N)cc1` (centres unmarked), `COC(=O)c1ccc(CN2CCN(Cc3ccc(F)cc3)C(CCO)C2)cc1` (centres unmarked) is lower in “hERG current change (%, negative = inhibition) at 1uM” value: 19% for the first, 16.6% for the second.

First: COc1cc2[nH]c(C(=O)N(C)C3CCS(=O)(=O)C3)cc2c(OC)c1OC (centres unmarked)
Second: COc1cc(C)c(/C=C(\C#N)C(=O)Nc2cccc(C)c2)cc1C(C)C
The “hERG current change (%, negative = inhibition) at 1uM” value of the first is higher: 12.1% for the first, -1.75% for the second.

`COc1ccc(-c2cc(C(=O)OCC(=O)c3cccc([N+](=O)[O-])c3)c3cc(C)ccc3n2)cc1` was tested, and the “hERG current change (%, negative = inhibition) at 1uM” value was 9.31%.
